Laboratory results taken from patent US20240270843A1, “TREM2 AGONIST BIOMARKERS AND METHODS OF USE THEREOF” (Vigil Neuroscience, Inc., priority 2021, published 2024).

Tests used:
[1] = Single IV or IT dose of Ab-1 in Cynomolgus monkeys: tolerability and CSF penetration; format: in vivo; settings: single IV 2, 20, 200 mg/kg; single IT 0.2 or 2 mg/animal
Description: (§1) Ab-1, a TREM2 agonist targeting microglia in the brain, was administered either intravenously (IV) or intrathecally (IT) in a single dose to Cynomolgus monkeys. Free Ab-1, chemokine, and soluble Colony-Stimulating Factor 1 Receptor (sCSF1R) analysis in CSF samples was conducted.
(§2) The test article was administered once on Day 1 via IV injection (Groups 1 to 3) or IT administration (Groups 4 and 5). The dose levels were 2, 20 and 200 mg/kg via IV injection at a dose volume of 2.0 and 2.5 mL/kg or 0.2 and 2 mg/animal via IT administration at a dose volume of 1.5 mL. Individual doses were based on the most recent body weights for IV administration. Each group consisted of four subjects, two male and two female. Table 8 outlines the overall experimental design and dosage levels.
(§3) CSF samples (0.25 mL) were collected from all animals via the IT port for Chemokine and sCSF1R analyses. A target volume of CSF (0.25 mL) was collected at time points Day −2, 4 hrs, 12 hrs, 24 hrs, 32 hrs, 48 hrs, 72 hrs, 96 hrs and 168 hrs. The port was positive pressure locked with aCSF or sterile PBS post collection. CSF samples were collected and placed on wet ice. All aliquots were stored frozen at −60° C. to −90° C.

[2] = tested on: TREM2; experiment: Exposure response of CSF sCSF1R, IP-10 and MCP-1 to Ab-1 in Cynomolgus monkeys (Simoa-based immunoassay); format: in vivo; settings: single IV or IT dose
Description: as §1, §2, §3
CSF samples were measured for free Ab-1, sCSF1R, IP-10, and MCP-1 concentrations as a function of time. sCSF1R, IP-10, and MCP-1 concentrations were determined using a Simoa-based immunoassay protocol. The concentration of sCSF1R, IP-10, and MCP-1 were plotted versus time. The change-from-baseline (CFB) concentration of sCSF1R was also plotted against free Ab-1 concentration. The change-from-baseline (CFB) concentration of sCSF1R plotted vs. the concentration of Ab-1 is shown in FIG. 3, as a combination of all data points, and in FIG. 4, where the data is broken up by time point, post-dose.

B1: Ab-1: anti-hTREM2 agonist antibody; light chain SEQ ID NO: 13, heavy chain SEQ ID NO: 16 (antibody)
heavy: EVQLVQSGAEVKKPGESLKISCKGSGYSFTSYWIGWVRQMPGKGLEWMGIIYPGDADARYSPSFQGQVTISADKSISTAYLQWSSLKASDTAMYFCARRRQGIFGDALDFWGQGTLVTVSSASTKGPSVFPLAPSSKSTSGGTAALGCLVKDYFPEPVTVSWNSGALTSGVHTFPAVLQSSGLYSLSSVVTVPSSSLGTQTYICNVNHKPSNTKVDKKV[not shown - human IgG1 Fc with R292C N297G V302C (EU numbers)]
light: EIVMTQSPATLSVSPGERATLSCRASQSVSSNLAWFQQKPGQAPRLLIYGASTRATGIPARFSGSGSGTEFTLTISSLQPEDFAVYYCLQDNNFPPTFGQGTKVDIKRTVAAPSVFIFPPSDEQLKSGTASVVCLLNNFYPREAKVQWKVDNALQSGNSQESVTEQDSKDSTYSLSSTLTLSKADYEKHKVYACEVTHQGLSSPVTKSFNRGEC
For B1, the CSF penetration [1] was “penetrate the CSF to a reasonable degree”, the Tolerability [1] was “well tolerated” and the “Exposure-response between IP-10 and free Ab-1 in CSF” value [2] was “No significant exposure-response”. For the same molecule, the “Exposure-response between MCP-1 and free Ab-1 in CSF” value [2] was “No significant exposure-response” and the “Exposure-response of sCSF1R change-from-baseline vs Ab-1 concentration in CSF” value ([2]; by post-dose time point) was “most pronounced at earlier timepoints (<24 hours) with a flat exposure response at later timepoints”.
